± gives the standard deviation of the averaged measurements. The list shows a part of the results.

For this assay, the system named is PfAP2-EXP AP2 domain (GST-tagged). In words: gcPBM binding intensity (ln(normalized median fluorescence intensity)); higher = stronger DNA binding. Put shortly: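 GST-fused DNA-binding domains of P. falciparum, expressed in E. coli, were applied at about 25 μg on average for 1 h to an Agilent 4 × 180k array of primer-extended double-stranded 36-bp intergenic genomic probes and negative controls. Binding intensity is the highest Masliner-normalised natural-log median intensity across replicate spots of either probe orientation, measured with Alexa488 anti-GST antibody and a 488 nm scan.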
Consider “CTATTATCGGTTCCTACACACAAATATAGATGTCTA [CACACA_site7651]”, for which the “gcPBM binding intensity (ln)” value is 8.72 ± 0.35. Then “TATTTGCAATATAACACACACAAAAAAAGACTCGGA [CACACA_site6891]”, with 8.8 ± 0.59. “CATATATATATATATTGTACACATTTTTTATAAAAA [XGTACX_site2526]”: the “gcPBM binding intensity (ln)” value is 8.86 ± 0.19.

Turning to “TATATGTAATATATATGTACGTATAATATAATATTG [XGTACX_site8620]”, the “gcPBM binding intensity (ln)” value came to 8.49 ± 0.21. Consider “AATTATACATTATATTGTACATATGAATAATTAAAA [XGTACX_site6829]”, for which the “gcPBM binding intensity (ln)” value turned out to be 8.15 ± 0.26. For the sequence “TATATATAAAGCAGTACACACATTTATTTTAGATAC [CACACA_site3387]”, the “gcPBM binding intensity (ln)” value is 8.59 ± 0.3. On to “AGTGATAATTTAAAAAGTACAAATGAAATTTAGCTA [XGTACX_site3375]”, for which the “gcPBM binding intensity (ln)” value amounted to 8.48 ± 0.38. For the sequence “AGAGAGAAAGCTATAACATGCAAAAATTTTTAGAAC [TGCATGCA_site420]”, the “gcPBM binding intensity (ln)” value was determined as 9.06 ± 0.48.

Consider “ATACAAATAAAAAAAAAAATTATAAAATTATAAAAT [CACACA_negctrl_site914]”, for which the “gcPBM binding intensity (ln)” value stood at 8.19 ± 0.41.

“AAAATGAACAAACACACACACATATATATATATATA [CACACA_site2403]”: the “gcPBM binding intensity (ln)” value worked out at 10.2 ± 0.44. Turning to “AAAAATGTATGTATGGTGCAGTATTCATATCATTTT [GTGCAC_site9458]”, the “gcPBM binding intensity (ln)” value turned out to be 8.67 ± 0.13.

As for “TTATTGTGTAAGATGATTTTCTTCGTCACTTTGAAA [CACACA_negctrl_site1814]”, the “gcPBM binding intensity (ln)” value stood at 8.28 ± 0.57. On to “TCTTGAAAAAGAATCAATCGGTCGACAAAAAAAAAA [CACACA_negctrl_site1099]”, for which the “gcPBM binding intensity (ln)” value amounted to 8.77 ± 0.44. The result for “GACAAATAATAAAAGGTGCATTATACTTAACAAAAA [GTGCAC_site9624]” reads 9.05 ± 0.28.

As for “AAAAAACACTTAAGGTGTACCTTTTAATATAAGTAT [XGTACX_site2397]”, the “gcPBM binding intensity (ln)” value is 8.38 ± 0.3. The result for “TTTTTTAATATTTATTAATTAAACTTTGTTTTTGTT [XGTACX_negctrl_site454]” reads 8.03 ± 0.34. With “ATATTCTTGTTTAATACACACTGTAGTATTATAGAT [CACACA_site6341]”, the “gcPBM binding intensity (ln)” value was found to be 8.72 ± 0.46.

On to “TGGAGGATAGTTCACAGTACCCAGTAACTCTACGGA [XGTACX_site4930]”, for which the “gcPBM binding intensity (ln)” value turned out to be 8.72 ± 0.53. With “AAAGTATAAATAAATACACACATATATATATATATA [CACACA_site2892]”, the “gcPBM binding intensity (ln)” value is 10 ± 0.29. “AACCATAACTCATATGCACACATAAATATTACATAT [CACACA_site9273]”: the “gcPBM binding intensity (ln)” value is 8.67 ± 0.3. Take “TACATTCGGAGTAAAAAAAAATTTATACAATTACTT [XGTACX_negctrl_site29]”: the “gcPBM binding intensity (ln)” value is 8.21 ± 0.38. On to “GTAAAAAAAAAAAAAAGTACATTATACATATATTTA [XGTACX_site5447]”, for which the “gcPBM binding intensity (ln)” value amounted to 8.05 ± 0.38. Consider “TGTGTATATAAATAATGTACATATATATTTTTTTAT [XGTACX_site7341]”, for which the “gcPBM binding intensity (ln)” value came out at 8.37 ± 0.29. Turning to “AATAAATATATGTACACACACAAATATATACATATC [CACACA_site1903]”, the “gcPBM binding intensity (ln)” value was determined as 8.54 ± 0.24.
